Among the data in paper PMC12820563, “FoxP3 forms a head-to-head dimer in vivo and stabilizes its multimerization on adjacent microsatellites” are binding signal values, retold here.

Some of the results follow.

The target in this assay is T1, MBP-FoxP1dN (Mus musculus, UniProt P58462 326-579).
T1 sequence: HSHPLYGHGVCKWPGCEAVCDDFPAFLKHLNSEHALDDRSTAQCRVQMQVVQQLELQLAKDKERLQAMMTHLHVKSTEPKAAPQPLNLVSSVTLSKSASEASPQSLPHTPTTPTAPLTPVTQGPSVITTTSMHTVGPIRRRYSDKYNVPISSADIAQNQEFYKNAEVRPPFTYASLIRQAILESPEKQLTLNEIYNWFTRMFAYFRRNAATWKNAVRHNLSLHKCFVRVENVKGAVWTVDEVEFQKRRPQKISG
The assay is described as follows: PD-seq (MBP pull-down with sequencing); 20 mM Tris-HCl pH 7.5, 100 mM NaCl, 1.5 mM MgCl2, 0.4 uM protein, 0.1 uM dsDNA library, 30 min, room temperature, amylose pull-down; high values mean tight binding. As to conditions: protein: recombinant; tags: His6-MBP; chain copies: 2; dsDNA, one strand shown. The method, boiled down: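 His6-MBP-tagged mouse FoxP3 or FoxP1 fragment lacking the N-terminus, expressed in E. coli, was mixed at 0.4 µM with 0.1 µM Klenow-filled double-stranded degenerate DNA library. Incubation was 30 min at room temperature in Tris pH 7.5 buffer with NaCl and MgCl2. Complexes were caught on amylose resin and washed three times; DNA was released with proteinase K, PCR-barcoded and Illumina-sequenced. Binding is reads-per-million enrichment, pull-down over input, with replicates pooled.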
As to “GATGATTGTTCTCCCAGCTGATGAATTCGCCCGGTCGAGTAAACAAATTTTCCTAATCTTTCTGTTCAAGCGCCATCTAC”, the binding signal was 0.767 RPM ratio (pull-down/input).
On to “GATGATTGTTCTCCCAGCTGATGAATTCGGGCACTCGAGTAAACAAATTTTCCTAATCTTTCTGTTCAAGCGCCATCTAC”, for which the binding signal is 0.858 RPM ratio (pull-down/input).
Under “GATGATTGTTCTCCCAGCTGATGAATTTAGGGCCTCGAGTAAACAAATTTTCCTAATCTTTCTGTTCAAGCGCCATCTAC” stands 0.861 RPM ratio (pull-down/input); under “GATGATTGTTCTCCCAGCTGATGAATTCGGTGCGTCGAGTAAACAAATTTTCCTAATCTTTCTGTTCAAGCGCCATCTAC”, 0.966 RPM ratio (pull-down/input).
Under “GATGATTGTTCTCCCAGCTGATGAATTACCTGTGTCGAGTAAACAAATTTTCCTAATCTTTCTGTTCAAGCGCCATCTAC” stands 1.05 RPM ratio (pull-down/input).
With “GATGATTGTTCTCCCAGCTGATGAATTTGACATTTCGAGTAAACAAATTTTCCTAATCTTTCTGTTCAAGCGCCATCTAC”, the binding signal was 0.878 RPM ratio (pull-down/input).
For “GATGATTGTTCTCCCAGCTGATGAATTGTTGCCATCGAGTAAACAAATTTTCCTAATCTTTCTGTTCAAGCGCCATCTAC” the value was 1.53 RPM ratio (pull-down/input); for “GATGATTGTTCTCCCAGCTGATGAATTGTTCGGATCGAGTAAACAAATTTTCCTAATCTTTCTGTTCAAGCGCCATCTAC”, 1.02 RPM ratio (pull-down/input); for “GATGATTGTTCTCCCAGCTGATGAATTGAGGCAGTCGAGTAAACAAATTTTCCTAATCTTTCTGTTCAAGCGCCATCTAC”, 0.928 RPM ratio (pull-down/input).
For “GATGATTGTTCTCCCAGCTGATGAATTCTATTAGTCGAGTAAACAAATTTTCCTAATCTTTCTGTTCAAGCGCCATCTAC” the value was 1.14 RPM ratio (pull-down/input); for “GATGATTGTTCTCCCAGCTGATGAATTACCTGGGTCGAGTAAACAAATTTTCCTAATCTTTCTGTTCAAGCGCCATCTAC”, 0.871 RPM ratio (pull-down/input).
Under “GATGATTGTTCTCCCAGCTGATGAATTCGCCGGATCGAGTAAACAAATTTTCCTAATCTTTCTGTTCAAGCGCCATCTAC” stands 0.812 RPM ratio (pull-down/input); under “GATGATTGTTCTCCCAGCTGATGAATTAGGTCTTTCGAGTAAACAAATTTTCCTAATCTTTCTGTTCAAGCGCCATCTAC”, 0.894 RPM ratio (pull-down/input); under “GATGATTGTTCTCCCAGCTGATGAATTAAAATTTTCGAGTAAACAAATTTTCCTAATCTTTCTGTTCAAGCGCCATCTAC”, 0.956 RPM ratio (pull-down/input).
“GATGATTGTTCTCCCAGCTGATGAATTAGGTCTCTCGAGTAAACAAATTTTCCTAATCTTTCTGTTCAAGCGCCATCTAC”: the binding signal was 0.802 RPM ratio (pull-down/input).
Under “GATGATTGTTCTCCCAGCTGATGAATTTGAACACTCGAGTAAACAAATTTTCCTAATCTTTCTGTTCAAGCGCCATCTAC” stands 0.93 RPM ratio (pull-down/input).
As for “GATGATTGTTCTCCCAGCTGATGAATTAGTCCCGTCGAGTAAACAAATTTTCCTAATCTTTCTGTTCAAGCGCCATCTAC”, the binding signal is 0.909 RPM ratio (pull-down/input).
In the case of “GATGATTGTTCTCCCAGCTGATGAATTATGCCCGTCGAGTAAACAAATTTTCCTAATCTTTCTGTTCAAGCGCCATCTAC”, the binding signal is 0.958 RPM ratio (pull-down/input).
For the sequence “GATGATTGTTCTCCCAGCTGATGAATTTCAGACCTCGAGTAAACAAATTTTCCTAATCTTTCTGTTCAAGCGCCATCTAC”, the binding signal is 0.717 RPM ratio (pull-down/input).
“GATGATTGTTCTCCCAGCTGATGAATTATCGCTCTCGAGTAAACAAATTTTCCTAATCTTTCTGTTCAAGCGCCATCTAC”: the binding signal is 0.968 RPM ratio (pull-down/input).
Turning to “GATGATTGTTCTCCCAGCTGATGAATTCCGTGTTTCGAGTAAACAAATTTTCCTAATCTTTCTGTTCAAGCGCCATCTAC”, the binding signal is 0.891 RPM ratio (pull-down/input).
For “GATGATTGTTCTCCCAGCTGATGAATTTGTGCACTCGAGTAAACAAATTTTCCTAATCTTTCTGTTCAAGCGCCATCTAC” the value was 1.12 RPM ratio (pull-down/input); for “GATGATTGTTCTCCCAGCTGATGAATTCGGTTACTCGAGTAAACAAATTTTCCTAATCTTTCTGTTCAAGCGCCATCTAC”, 0.871 RPM ratio (pull-down/input); for “GATGATTGTTCTCCCAGCTGATGAATTTGTTCGGTCGAGTAAACAAATTTTCCTAATCTTTCTGTTCAAGCGCCATCTAC”, 1.08 RPM ratio (pull-down/input).
Under “GATGATTGTTCTCCCAGCTGATGAATTAATACCGTCGAGTAAACAAATTTTCCTAATCTTTCTGTTCAAGCGCCATCTAC” stands 1.03 RPM ratio (pull-down/input); under “GATGATTGTTCTCCCAGCTGATGAATTCACGACTTCGAGTAAACAAATTTTCCTAATCTTTCTGTTCAAGCGCCATCTAC”, 0.834 RPM ratio (pull-down/input).
For “GATGATTGTTCTCCCAGCTGATGAATTCGCTGAGTCGAGTAAACAAATTTTCCTAATCTTTCTGTTCAAGCGCCATCTAC”, the binding signal is 0.822 RPM ratio (pull-down/input).
For the sequence “GATGATTGTTCTCCCAGCTGATGAATTTTTACTGTCGAGTAAACAAATTTTCCTAATCTTTCTGTTCAAGCGCCATCTAC”, the binding signal is 0.975 RPM ratio (pull-down/input).
On to “GATGATTGTTCTCCCAGCTGATGAATTTAGGTAGTCGAGTAAACAAATTTTCCTAATCTTTCTGTTCAAGCGCCATCTAC”, for which the binding signal is 0.982 RPM ratio (pull-down/input).
Under “GATGATTGTTCTCCCAGCTGATGAATTCTCTCGTTCGAGTAAACAAATTTTCCTAATCTTTCTGTTCAAGCGCCATCTAC” stands 0.866 RPM ratio (pull-down/input); under “GATGATTGTTCTCCCAGCTGATGAATTGGCCTAGTCGAGTAAACAAATTTTCCTAATCTTTCTGTTCAAGCGCCATCTAC”, 0.821 RPM ratio (pull-down/input).
